ChEMBL document CHEMBL4888484, “Replenishing the malaria drug discovery pipeline: Screening and hit evaluation of the MMV Hit Generation Library 1 (HGL1) against asexual blood stage Plasmodium falciparum ,using a nano luciferase reporter read-out” (2022)
In all, about 150,000 compounds went through this assay and about 540 (0.36%) showed an effect of 50% or more. This is one part of the list.

The compounds below were run on Plasmodium falciparum (assay: Primary screen in NF54 nanoGlo assay, in single point, at 2uM, 72h; a lower Z score goes with more inhibition). Settings: timepoint 72 hour.
Type: functional, Erythrocyte

For `OC1(CNc2cncc(-n3cccn3)n2)CCOCC1`, which “% Inhibition” value is on record?
The value was -14%.

What about the Z score of the same compound?
The Z score was 1.45.

Which results are given for `O=C(Nc1ccnn1C1CCN(Cc2ccc3c(c2)OCCO3)CC1)C1CCCC1`?
% Inhibition: 7%; Z score: -1.29

`COc1ccc(NC(=O)c2cccn2Cc2noc(C)n2)cc1Cl` was tested. Which “% Inhibition” value did it give?
The value was -8%.

What about the Z score of the same compound?
Its Z score is 1.26.

Which “% Inhibition” value does the source give for `COCCc1nc(-c2cccc(N(C)C)c2)n(CC(F)(F)F)n1` here?
The value was -3%.

What about the Z score of the same compound?
Its Z score is 0.57.

For `Cc1ccc([C@H]2CN(Cc3cccc(OCCO)c3)C[C@@H]2N(C)C)cc1`, which “% Inhibition” value is on record?
Its value is -13%.

And the Z score?
The Z score was 1.5.

What does the source list for `O=C(C1c2ccccc2Oc2ccccc21)N1C2CCC1CC(F)C2` (stereo unspecified)?
% Inhibition: -20%; Z score: 2.38

For `COCCNC(=O)NCCCN(C)c1ccccc1F`, which “% Inhibition” value is on record?
The value was -4%.

And the Z score?
The Z score was 0.51.

For `Cc1ccc(NC(=O)[C@H]2CCCN(c3c(-c4ccccc4)c4cc(Cl)ccc4[nH]c3=O)C2)cc1`, which “% Inhibition” value is on record?
The value was 7%.

What about the Z score of the same compound?
The Z score was -1.18.

What does the source list for `CCNc1nc(NCC)nc(OCCNS(=O)(=O)c2ccccc2)n1`?
% Inhibition: 14%; Z score: -1.87

For `Cc1ccc(NC(=O)c2ccc3c(-c4ccccc4)onc3c2)cc1`, which “% Inhibition” value is on record?
Its value is 32%.

What about the Z score of the same compound?
The Z score was -4.32.

Which “% Inhibition” value does the source give for `O=C(c1cnc2ccccc2n1)N1CCC[C@H](Cc2nc(C3CC3)no2)C1` here?
Its value is 5%.

What about the Z score of the same compound?
Its Z score is -0.62.

Which “% Inhibition” value does the source give for `CN(CC1CC1)C(=O)Cc1cnn(-c2ccccc2)c1` here?
The value was -7%.

What about the Z score of the same compound?
Its Z score is 1.17.

For `COc1cccc(NC(=O)[C@@H](C)C2CCN(C(=O)Nc3ccc(Cl)cc3)CC2)c1`, which “% Inhibition” value is on record?
Its value is -15%.

What about the Z score of the same compound?
The Z score was 2.52.

With `O=C(Cc1c(F)cccc1Cl)N1CCC[C@H]1c1cccc(F)c1` as the compound, how does the “% Inhibition” value read?
Its value is 5%.

What about the Z score of the same compound?
Its Z score is -0.93.

Which results are given for `COCc1cc(Cl)ccc1NC(=O)C1(C(F)(F)F)CCOCC1`?
% Inhibition: -8%; Z score: 0.9

`COCc1nc([C@H]2CCN(S(=O)(=O)c3ccc4c(c3)OCCO4)C2)no1` was tested. Which “% Inhibition” value did it give?
Its value is -7%.

And the Z score?
The Z score was 1.38.

For `O=C(COc1ccc2ccccc2c1)N1CCC(Oc2ccc(Cl)cn2)CC1`, which “% Inhibition” value is on record?
The value was -7%.

And the Z score?
Its Z score is 1.07.

For `Cc1ccc(Br)c(S(=O)(=O)NC2CC3CCC2O3)c1` (stereo unspecified), which “% Inhibition” value is on record?
Its value is -4%.

And the Z score?
The Z score was 0.49.

How did the “% Inhibition” value turn out when `Cc1cc(CCNC(=O)CC2CCCC2)on1` was run?
Its value is -7%.

And the Z score?
Its Z score is 1.07.

Which “% Inhibition” value does the source give for `Cc1nc(C)c(C(=O)N2C[C@@H](CN3C[C@@H](C)O[C@@H](C)C3)[C@@H](CO)C2)s1` here?
The value was 2%.

What about the Z score of the same compound?
The Z score was -0.24.

Which “% Inhibition” value does the source give for `Cn1nncc1CNc1ccc(F)c(NC(=O)C2CCCCC2)c1` here?
Its value is -14%.

And the Z score?
Its Z score is 1.6.

Which results are given for `O=C(N[C@H]1CCCN(Cc2ccccc2)C1)c1cncc(O)n1`?
% Inhibition: 0%; Z score: -0.04

For `Cc1cccc(C)c1OCC(=O)Nc1cccc2c1C(=O)N(c1ccccc1)C2=O`, which “% Inhibition” value is on record?
The value was -9%.

And the Z score?
The Z score was 1.14.

With `COc1ccc(-c2c(C(=O)NCc3ccc(C)o3)nn3c(C)cc(C)nc23)cc1S(=O)(=O)N1CCCCC1` as the compound, how does the “% Inhibition” value read?
Its value is -14%.

What about the Z score of the same compound?
The Z score was 1.39.

What does the source list for `CC1Cc2cc(F)ccc2C(C)N1C(=O)CS(=O)(=O)C1CC1` (stereo unspecified)?
% Inhibition: -13%; Z score: 1.73

How did the “% Inhibition” value turn out when `CCOc1ncccc1C(=O)N1CC[C@@H]2OCc3cccc(c3)Oc3cccc(c3)CC(=O)N(CC)CC(=O)N[C@H]2C1` was run?
The value was -6%.

And the Z score?
Its Z score is 1.17.

How did the “% Inhibition” value turn out when `COc1ccc(F)c(F)c1CN1CC[C@@]2(CCCN(CC3CC3)C2=O)C1` was run?
Its value is -6%.

What about the Z score of the same compound?
Its Z score is 0.82.

How did the “% Inhibition” value turn out when `CN(C)CC(=O)NC1(c2noc([C@H]3CCOC3)n2)CCCCCC1` was run?
The value was -6%.

And the Z score?
Its Z score is 0.95.

Which results are given for `COc1ccc(N(Cc2cc(CN3CCOCC3)cs2)S(=O)(=O)c2ccc(F)c(F)c2)cc1`?
% Inhibition: -11%; Z score: 1.43

Which “% Inhibition” value does the source give for `O=c1c(-c2noc(C3(F)CC3)n2)cccn1C1CC1` here?
Its value is 4%.

And the Z score?
The Z score was -0.57.

For `CC(C)(C)OC(=O)NCc1cc(=O)[nH][nH]1`, which “% Inhibition” value is on record?
Its value is 0%.

What about the Z score of the same compound?
Its Z score is -0.07.

`CC(C)Oc1ccccc1-c1cc(C(=O)Nc2sc3c(c2C(N)=O)CCCCC3)c2ccccc2n1` was tested. Which “% Inhibition” value did it give?
The value was -9%.

What about the Z score of the same compound?
Its Z score is 0.97.

Which results are given for `CCOc1ccc(-c2nc(CN(C)S(=O)(=O)c3cccs3)cs2)cc1OC`?
% Inhibition: -19%; Z score: 2.6

For `Cc1ccc(CNC(=O)c2ccc(N3CCCCS3(=O)=O)cc2)cc1`, which “% Inhibition” value is on record?
Its value is -9%.

What about the Z score of the same compound?
Its Z score is 1.22.

What does the source list for `N#CCCN(C[C@H]1CCOC1)C(=O)c1cccc2[nH]ccc12`?
% Inhibition: 0%; Z score: -0.01

Which results are given for `Cc1ncccc1C(=O)NCCc1csc(NC(=O)c2cccnc2C)n1`?
% Inhibition: -12%; Z score: 1.8

`CCN(Cc1cnn(CC)c1)C(=O)[C@@H]1CCCN(Cc2ccccc2)[C@@H]1COC` was tested. Which “% Inhibition” value did it give?
Its value is 5%.

And the Z score?
Its Z score is -0.65.

With `NC(=O)c1nccnc1C(=O)Nc1cccc(-c2ncco2)c1` as the compound, how does the “% Inhibition” value read?
Its value is -2%.

What about the Z score of the same compound?
Its Z score is 0.28.

Which results are given for `O=C(Nc1ccc2[nH]c(=O)[nH]c2c1)c1nn(Cc2ccccc2)c(=O)c2ccccc12`?
% Inhibition: -4%; Z score: 0.51

Which “% Inhibition” value does the source give for `Cc1nc(-c2cccc(CN3CC[C@@]4(O)CCCC[C@H]4C3)c2)[nH]c(=O)c1F` here?
Its value is -15%.

What about the Z score of the same compound?
Its Z score is 1.56.

Which “% Inhibition” value does the source give for `O=C(CN1CCN(c2ccc(F)cc2)C1=O)NCc1ccccn1` here?
Its value is 0%.

What about the Z score of the same compound?
The Z score was -0.01.

How did the “% Inhibition” value turn out when `c1ccc(-c2noc(-c3ccc[nH]3)n2)cc1` was run?
The value was -12%.

What about the Z score of the same compound?
Its Z score is 1.34.

Which results are given for `CC1(C)Cc2nc3nc(O)[nH]c3cc2CO1`?
% Inhibition: -6%; Z score: 0.77

How did the “% Inhibition” value turn out when `Cn1cc(C(=O)N2CCC23COC3)c(-c2ccc(Cl)s2)n1` was run?
Its value is -7%.

What about the Z score of the same compound?
Its Z score is 0.91.

Which results are given for `COc1ccc([C@H]2CC(O)=Nc3c2ncn3-c2ccc(F)cc2)cc1`?
% Inhibition: -5%; Z score: 0.55

`Cc1nc([C@H]2C[C@H](NC(=O)CCc3c(C)noc3C)C2)cc(=O)[nH]1` was tested. Which “% Inhibition” value did it give?
The value was -5%.

And the Z score?
Its Z score is 0.58.

`COc1ccccc1CCN(C)CC(=O)Nc1c(C)n[nH]c1C` was tested. Which “% Inhibition” value did it give?
The value was 6%.

What about the Z score of the same compound?
The Z score was -0.75.

`COCc1ccc(NC(=O)N[C@@H](C)C(=O)N2CCCCC2)cc1` was tested. Which “% Inhibition” value did it give?
Its value is -5%.

And the Z score?
Its Z score is 0.69.

What does the source list for `CC(C)COc1ccc(C(N)=O)cc1N`?
% Inhibition: -9%; Z score: 1.09

What does the source list for `CC(=O)N1CCC2(CC1)Nc1ccccc1S(=O)(=O)N2`?
% Inhibition: 4%; Z score: -0.5

Which “% Inhibition” value does the source give for `O=C(CC1CCCC1)NC[C@H](O)c1ccoc1` here?
Its value is -4%.

What about the Z score of the same compound?
The Z score was 0.64.

Which results are given for `O=C(c1ccns1)N(CCO)CC1CC1`?
% Inhibition: -14%; Z score: 2.59

Which results are given for `Cc1ncc(C)c(N2CCC[C@H](c3[nH]ncc3Cc3ccccc3)C2)n1`?
% Inhibition: 1%; Z score: -0.08
